In all, about 360,000 compounds went through this assay and about 11,000 (3.1%) were called active. Inconclusive means that the source gave no clear call. Such entries were picked first, then a sample of the others. Calls follow the shape of the dose curve; as a rule, active = well fitted inhibition curve with a large enough effect; inconclusive = small, poorly fitted or top-dose-only effect; inactive = no such curve, though single readings can be large or run the other way. Potencies of inconclusive entries are left out as doubtful fits.
target: Schistosoma mansoni thioredoxin glutathione reductase (TGR) (UniProt Q962Y6); assay: qHTS Assay for the Inhibitors of Schistosoma Mansoni Peroxiredoxins; conditions: purified TGR, DTNB reduction, TNB absorbance 405 nm; series mostly up to 114 µM; also: nearly all actives have a fitted effect of over 60% in size
Text: Schistosomiasis is a major neglected tropical disease that currently affects over 200 million. It is caused by different species of flatworms, such as Schistosoma mansoni. Over the last century, drugs to treat the disease have evolved from potassium antimonyl tartrate, artemisinin, oxamniquine, to praziquantel, with praziquantel remaining the universally-used single drug of choice over the past three decades. However, transmission rates have changed little with praziquantel, and there is evidence for the development of drug resistant parasites. Because there is currently no suitable alternative therapy available, there is an urgent need to identify new targets and drugs for schistosomiasis treatment. Thioredoxin glutathione reductase (TGR), one uniquely positioned S. mansoni enzyme, has been identified as a major component of the worms' distinct and compressed antioxidant "firewall". TGR is a multifunctional enzyme that catalyzes the interconversion between reduced and oxidized forms of both glutathione (GSH) and thioredoxins, thus making it an attractive new antiparasitic target. Recently, a quantitative high-throughput screen of the NIH Molecular Libraries Small Molecule Repository (MLSMR, ~71K at the time of the screen in 2007) was performed using an assay that targeted both TGR and peroxiredoxin2 (Prx2, an H2O2-reducing enzymatic component of the S. mansoni redox "firewall") by following the decrease of NADPH fluorescence. […] Additional mechanistic link between exogenous NO donation and parasitic injury for the oxadiazole-2-oxide class of compounds was also expanded and better defined. Although the screen addressed both TGR and Prx2, the assay required post-screen target deconvolution for further characterization of the actives. In addition, the fluorescence assay was also subject to fluorescence interference from compound library members. We have developed a 1536-well-based kinetic HTS assay to address TGR alone. The assay followed the reduction of 5, 5'-dithiobis (2-nitrobenzoic acid) (DTNB) (Ellman's reagent) by NADPH and measured the increase in absorbance at 412 nm of the reaction product, TNB. […] This assay format can be used to screen the current MLSMR collection (with >300K compounds available) to find novel TGR inhibitors. Furoxan is a good choice to serve as a positive control in the primary HTS assay.
Three microliters of reagents (100 uM NADPH and 20 nM TGR or 100 uM NADPH as no-enzyme control) were dispensed into 1,536-well black clear-bottomed plates. Compounds (23 nL) were transferred via Kalypsys pin tool equipped with 1536-pin array (10 nL slotted pins, V&P Scientific, San Diego, CA). The plates were then be incubated for 15 min at room temperature, and 1 uL aliquot of 500 uM NADPH were added, immediately followed by a 1 uL aliquot of 15 mM DTNB to start the reaction. The plate was transferred to a ViewLux high-throughput CCD imager (Perkin-Elmer, Wellesley, MA) where kinetic measurements of the TNB absorbance were acquired using a 405 excitation filter. Throughout the screen, reagent bottles and all liquid lines were made light-tight to minimize reagent degradation. All screening operations were performed on a fully integrated robotic system (Kalypsys, San Diego, CA) containing one RX-130 and two RX-90 anthropomorphic robotic arms (Staubli, Duncan, SC). Library plates were screened starting from the lowest and proceeding to the highest concentration, and a "double-dipping" step of the highest concentration was required to access higher concentrations of compounds. Vehicle-only plates, with DMSO being pin-transferred to the entire column 5-48 compound area, were inserted uniformly at the beginning and the end of each library in order to monitor for and record any shifts in the background, which can be affected by reagent dispensers or loss in enzyme activity overtime. […]
Potency is read from the fitted curve at half-maximal effect; tags tell the direction and shape of the fitted curve.

SMILES | Potency
O=C(CCOc1ccccc1)N(Cc1cccnc1)c1nc2ccc(F)cc2s1 | active: 3.98 µM
Cc1ccc2nc(-c3ccc(NC(=O)CN4CCN(C(=O)c5ccco5)CC4)cc3)sc2c1 | inconclusive [inhibitor, partial curve]
CC(=O)OCC1=C(C(=O)O)N2C(=O)C(NC(=O)c3ccc(COc4cccc(Cl)c4Cl)o3)C2SC1 (configuration not stated) | active: 20 µM
COCCNC(=S)N(CCc1c(C)[nH]c2ccc(OC)cc12)Cc1ccco1 | inconclusive [inhibitor, partial curve]
COc1ccc(-c2ccc(CCC(=O)O)n2-c2ccc(Cl)cc2C)cc1 | active: 39.8 µM
O=C(COC(=O)Cn1[nH]c(=O)c2ccccc2c1=O)NNC(=O)c1ccc(Br)cc1 | inactive
Cc1ccc(/C=C2\C(=O)Nc3ccccc32)o1 | active: 25.1 µM
CCOC(=O)c1c(NC(=O)c2cc(Cl)ccc2Cl)sc2c1CCCC2 | inconclusive [inhibitor, single point]
O=C(/C=C/c1cccc([N+](=O)[O-])c1)c1cccs1 | inactive
Cc1ccc(CNc2cc(C)nc3nc(-c4cccc(C)c4)nn23)cc1 | inconclusive [inhibitor, partial curve]
Cn1c(NCc2c[nH]c3ccccc23)nc2ccccc21 | inactive
Cc1c(C(N)=O)sc2ncn(CC(=O)N(C)C3CCCCC3)c(=O)c12 | inactive
CCn1cc(C(=O)N(C)c2ccc(OC)cc2OC)c2cc(OC)c(OC)cc2c1=O | inactive
COc1ccc(NC(=O)CSc2nc(-c3ccco3)nc3cc(=O)[nH]n23)cc1Cl | inconclusive [inhibitor, full curve]
O=C(NCc1ccco1)c1cnccn1 | inconclusive [inhibitor, single point]
O=C(Oc1ccccc1C(=O)Nc1ccccc1)c1ccc(Br)c([N+](=O)[O-])c1 | inconclusive [inhibitor, single point]
CCCc1nc(N)c(C#N)c(-c2cccnc2)c1CC | inconclusive [inhibitor, partial curve, poor fit]
COc1ccc(Nc2ncnc3c2cnn3-c2ccccc2)cc1OC | inactive
Cc1cccn2c(=O)c3cc(C(=O)NC4CCCCC4)c(=N)n(Cc4ccccc4)c3nc12 | active: 2.82 µM

SMILES | Potency
C(=N\N1CCOCC1)/c1nc(-c2ccccc2)n2ccccc12 | inconclusive [inhibitor, partial curve]
CCCCN(CC)C(=O)c1cc2c(=O)n3cccc(C)c3nc2s1 | inconclusive [inhibitor, full curve, poor fit]
Cc1cccc(C)c1NC1=C(Cl)C(=O)OC1OC(C)C (configuration not stated) | inactive
CCc1ccccc1NC(=O)CC1Sc2ccc(C(F)(F)F)cc2NC1=O (configuration not stated) | inconclusive [inhibitor, partial curve]
CC(C)N(Cc1ccccc1)C(=O)/C=C/c1ccccc1[N+](=O)[O-] | inactive
O=[N+]([O-])c1ccc(NC(=S)NCC(c2cccnc2)N2CCOCC2)cc1 (configuration not stated) | inconclusive [inhibitor, partial curve]
O=C(N/C(=C/c1ccc(Br)cc1)C(=O)N1CCCC1=O)c1ccco1 | inconclusive [inhibitor, partial curve]
COc1cccc(CN2CCNC(=O)C2CC(=O)N(C)C2CCOCC2)c1 (configuration not stated) | inconclusive [inhibitor, partial curve]
CN1CCN(C(=O)c2cc3ccccc3[nH]2)CC1 | inactive
CCCCn1c(-c2ccc(C(C)(C)C)cc2)nc2cc3[nH]c(=O)c(C(C)C)nc3cc21 | inactive
CCCCn1c(SCC(=O)c2ccc3c(c2)OCCO3)nnc1-c1ccco1 | inconclusive [inhibitor, partial curve]
CCOC(=O)C1=C(COC(=O)/C=C/c2ccc(C)o2)NC(=O)NC1C (configuration not stated) | active: 22.4 µM
COc1ccccc1C(C)NC(=O)CCOc1cccc(C)c1 (configuration not stated) | inactive
CCc1c(O)nc(SC2CC(=O)N(c3ccc(F)c(Cl)c3)C2=O)[nH]c1=O (configuration not stated) | inconclusive [inhibitor, partial curve]
COc1cc(/C=N/N2CCCCC2)cc([N+](=O)[O-])c1O | inconclusive [inhibitor, partial curve]
CC1=Nc2cc(C(=O)NCCc3ccc(Cl)cc3)ccc2Sc2c(C)ccc(C)c21 | inactive
Cc1cc(C)nc(N2CCCC(CCC(=O)NCc3ccc(F)c(F)c3)C2)n1 (configuration not stated) | inactive
O=[N+]([O-])c1cc(S(=O)(=O)NCCCN2CCOCC2)ccc1Cl | active: 44.7 µM

Reference: PubChem BioAssay AID485364 (National Center for Advancing Translational Sciences (NCATS), 2010)
